# About 800 (1.6%) of roughly 50,000 compounds showed an effect of 50% or more. This is one part of the list.
# Target: Bcl-2-like protein 10 (Homo sapiens) (UniProt Q9HD36)
# Experiment: Phenotype converters, Bcl-B/TR3 peptide binding displacement, primary biochemical FP (AID 1240);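 note: 0% = Bcl-B with tracer peptide and DMSO and 100% = tracer peptide lacking Bcl-B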
# Conditions: GST-Bcl-B / FITC-TR3 peptide fluorescence polarization; stronger effect = higher value; compound at 3.75 mg/L
# Sequence of UniProt Q9HD36 (Q9HD36 whole entry, looked up): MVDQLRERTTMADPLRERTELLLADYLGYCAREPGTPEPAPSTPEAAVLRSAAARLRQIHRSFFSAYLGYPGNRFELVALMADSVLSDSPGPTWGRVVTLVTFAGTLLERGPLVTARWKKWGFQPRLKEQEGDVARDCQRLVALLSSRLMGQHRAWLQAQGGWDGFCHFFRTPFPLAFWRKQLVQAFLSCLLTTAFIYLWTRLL
row,Structure (SMILES),displacement [%]
1,CC1S/C(=N\N=C\c2ccccc2F)NC1=O (centres undefined),-16.3
2,COc1ccc(CC(=O)NCc2ccc3c(c2)OCO3)cc1OC,-17.6
3,COc1ccc(CCNC(=O)CN(c2cc(C)cc(C)c2)S(=O)(=O)c2ccc(OC)c(OC)c2)cc1OC,-1.6
4,CCOc1ccccc1NC(=O)COc1ccc(C(C)(C)C)cc1,1.4
5,COc1ccc(N2C(=O)C(Cl)=C(Nc3ccc(F)cc3)C2=O)cc1,11.4
6,COc1cc(C=C2C(=O)NC(=O)NC2=O)ccc1OCCSc1ccc(C)cc1,64.1
7,Cc1ccc(-c2ccc(C=C3C(=O)N(C)C(=O)N(C)C3=O)o2)cc1[N+](=O)[O-],2.2
8,CCOc1cc(C=C2C(=O)NC(=S)NC2=O)ccc1OCCOc1ccccc1OC,5
9,Cc1ccc(C(=O)NC2Sc3ccccc3N=C2c2ccccc2)cc1 (centres undefined),12.1
10,O=C(Nc1cc(Cl)cc(Cl)c1)c1ccc2c(c1)OCO2,-5.4
11,N#C/C(=C/c1ccc(-c2cc(Cl)ccc2Cl)o1)C(=O)O,2
12,CCOC(=O)Nc1ccc(S(=O)(=O)Nc2ncccn2)cc1,-2.2
13,COc1ccc(CCN=C(C)C2=C(O)CSC2=O)cc1OC,5.5
14,CC1(C)COC(COc2ccc(Cl)cc2)=N1,4.8
15,Cc1nn(-c2ccccc2)c(C)c1Sc1ccc(Br)cc1,-7.3
16,c1ccc(C(c2ccccc2)c2nc3ccccc3[nH]2)cc1,10.3
17,O=C(c1ccccc1F)N1CCN(c2ccc([N+](=O)[O-])c(N3CCOCC3)c2)CC1,12.3
18,Clc1ccc(-c2nc(-c3ccncc3)no2)c(Cl)c1,4.9
19,C=CCc1cccc(/C=N/c2ncccc2O)c1O,46.1
20,C=CCSc1nc2sc3c(c2c(=O)[nH]1)CCC3,-4.5
21,O=C(O)C1CCCCC1C(=O)Nc1ccccn1 (centres undefined),-14.2
22,COc1ccc(-c2nnc(SCC(=O)NCCOc3ccccc3)n2-c2ccccc2)cc1,1.5
23,CCOc1cccc(C=NN2CCN(c3ccc(Cl)cc3)CC2)c1O,-8.1

row,Structure (SMILES),displacement [%]
1,CC(C)(C)c1cc(Br)ccc1OCC(=O)NCc1ccccc1,-11.8
2,Cc1cc(C)n(C(=O)CNC(=O)c2ccc(Br)cc2)n1,19.4
3,CCOC(=O)C1=C(C)N=c2s/c(=C\c3ccco3)c(=O)n2C1c1ccccc1 (centres undefined),16.5
4,COc1ccc(C(=O)NCCOc2ccccc2)c(OC)c1OC,-13
5,O=C(O)CCCCCCCCCCN1C(=O)/C(=C/c2ccc(Br)cc2)SC1=S,5.7
6,COc1ccc(-c2noc(COc3ccccc3C)n2)cc1,0.4
7,Cc1cc([N+](=O)[O-])ccc1-c1ccc(C(=O)Nc2ccccc2O)o1,13.5
8,CC1(C)SSC(=O)C1NC(=O)c1ccccc1 (centres undefined),18.6
9,CCN(CC)c1ccc(/C=C2/C(=O)NN(c3cccc(Cl)c3)C2=O)c(O)c1,1.9
10,CS(=O)(=O)N(Cc1ccccc1)c1ccc(C(=O)N[C@@H]2C[C@H]3CC[C@@H]2C3)cc1,-4.2
11,COc1ccc(OCC(=O)Nc2ccc(NC(=O)c3ccco3)cc2)cc1,3
12,O=C1C(=O)N(c2cccc(Cl)c2)C(c2ccc(F)cc2)/C1=C(\O)c1ccccc1 (centres undefined),1.9
13,CC1=C(C(=O)Nc2ccc(Cl)cc2)C(c2ccc(C)cc2)NC(=O)N1 (centres undefined),-9.3
14,CCN(CC)S(=O)(=O)c1cc(C(=O)NCc2ccccc2)ccc1Br,-15.5
15,O=C(Cc1ccc(-c2ccccc2)cc1)NNC(=O)c1cccc(Cl)c1,-7.3
16,O=C(Nc1ccccc1C(=O)N1CCN(Cc2ccccc2)CC1)c1ccc([N+](=O)[O-])cc1,10.8
17,O=C(N/N=C/c1cccc([N+](=O)[O-])c1)C1COc2ccccc2O1 (centres undefined),-1.2
18,Cc1ccccc1N1CCN(C(=S)c2ccc(Cl)cc2)CC1,10.6
19,Cc1ccc(S(=O)(=O)N(CCc2ccccc2)CC(=O)NCc2ccco2)cc1,11
20,CCOc1ccc(N(CC(=O)N[C@@H]2C[C@H]3CC[C@@H]2C3)S(C)(=O)=O)cc1,6.3
21,COc1ccccc1C(=O)NC(NC(=O)c1ccccc1OC)c1ccc(Br)cc1,6.9
22,COc1cccc(N2C(=O)NC(=O)/C(=C/C=C/c3ccccc3)C2=O)c1,3.9
23,O=C(NNC(=O)c1cccc(Cl)c1)c1cccc(F)c1,-4.7

row,Structure (SMILES),displacement [%]
1,Cc1ccc(C(=O)Nc2nc(C)c(C)s2)cc1[N+](=O)[O-],3.4
2,Cc1ccc(OCc2nnc(NC(=O)Nc3ccccc3)s2)cc1,0.8
3,COc1ccc(C(=O)N/C(=C\c2ccc(-c3cccc(Cl)c3)o2)C(=O)NCCCN2CCOCC2)cc1,11.7
4,NC(=O)c1cc2nc(-c3ccco3)cc(C(F)(F)F)n2n1,10.7
5,O=C(Nc1ccn(-c2ccccc2)n1)NS(=O)(=O)c1ccccc1Cl,2.4
6,CCOC(=O)c1c(C)n(C)c2cc(Br)c(C(=O)Oc3ccccc3)cc12,11
7,O=C(NNC(=O)c1ccc2ccccc2c1O)c1ccccc1Cl,6.6
8,CCCc1cc(=O)n2[nH]c(-c3cccc(F)c3)cc2n1,11.9
9,COc1ccccc1-n1cnc2cc(NC(=O)c3ccc(C)cc3)ccc21,9.4
10,CN(C)CCN1C(=O)C(=O)/C(=C(/O)c2ccccc2)C1c1ccc(Br)cc1 (centres undefined),6.2
11,Cc1c(-n2c(O)c(C3=c4cc(Br)ccc4=NC3=O)sc2=S)c(=O)n(-c2ccccc2)n1C,-1.5
12,CCOC(=O)C(Cc1ccccc1)(NC(C)=O)C(=O)OCC,-8.5
13,Cc1ccsc1/C=C1\SC(=S)N(c2c(C)n(C)n(-c3ccccc3)c2=O)C1=O,6.6
14,O=C(/C(=C/c1ccccc1[N+](=O)[O-])c1nc2ccccc2s1)c1ccccc1,8.6
15,CC1(C)CC(=O)C2=C(C1)Nc1ccccc1NC2c1c(F)cccc1Cl (centres undefined),2.2
16,O=C1C(=O)N(c2nccs2)C(c2cccc(Br)c2)/C1=C(\O)c1ccc(F)cc1 (centres undefined),11.7
17,O=C(CSc1nc2ccccc2c(=O)n1Cc1ccccc1)c1ccc(Br)cc1,-9
18,CC1CCN(CCCCOc2ccccc2C(C)C)CC1,-7.5
19,O=C(Nc1ccc(N2CCOCC2)cc1)c1cc2ccccc2oc1=O,-1.6
20,O=C1N(c2ccccc2)C2CS(=O)(=O)CC2N1c1cccc(Cl)c1 (centres undefined),-9.1
21,CCCCOc1ccc(C(=O)N2c3ccccc3CC2C)cc1 (centres undefined),6.4
22,Fc1ccc(-c2nc(-c3cccnc3)no2)cc1,5.2
23,O=C(CC(Nc1ccc2ncccc2c1)c1ccc(F)cc1)c1ccccc1 (centres undefined),8.5

# Source: PubChem BioAssay AID1240 (Sanford-Burnham Center for Chemical Genomics, 2008)
